According to the supplement of paper PMC4967469:

Experiments:
Test in all cases: Viability of human cancer cell lines after 72 h of drug (GDSC screen)
JNK-9L = compound: Fc1cc(-c2ccnc(Nc3ccc(-n4cnc(N5CCOCC5)n4)cc3)n2)cc(N2CCOCC2)c1 [JNK-9L]; conditions: top dose 5.12 µM; top dose inferred
Description: (§1)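 Human cancer cell lines in 384-well plates, medium with 10% serum, drug for 72 h over a 256-fold dose range (nine 2-fold or five 4-fold steps up to the top dose). Adherent lines were fixed and stained with the nucleic acid dye Syto60, suspension lines read with resazurin; signal relative to control wells, capped at 0 and 100%. One two-parameter sigmoid per drug and line, fitted in a mixed model over all curves with the slope shared within a line.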

5-Fluorouracil = compound: O=c1[nH]cc(F)c(=O)[nH]1 [5-Fluorouracil]; conditions: top dose 32 µM; top dose inferred
Description: as §1

RDEA119 = compound: COc1cc(F)c(F)c(Nc2ccc(I)cc2F)c1NS(=O)(=O)C1(C[C@H](O)CO)CC1 [RDEA119]; conditions: top dose 5 µM, top dose inferred
Description: as §1

OSU-03012 = compound: NCC(=O)Nc1ccc(-n2nc(C(F)(F)F)cc2-c2ccc3c(ccc4ccccc43)c2)cc1 [OSU-03012]; conditions: top dose 16 µM; top dose inferred
Description: as §1

AC220 = compound: CC(C)(C)c1cc(NC(=O)Nc2ccc(-c3cn4c(n3)sc3cc(OCCN5CCOCC5)ccc34)cc2)no1 [AC220]; conditions: top dose 1.024 µM; top dose inferred
Description: as §1

QS11 = compound: OC[C@H](Cc1ccccc1)Nc1nc(Oc2ccc3c(c2)CCC3)nc2c1ncn2Cc1ccc(-c2ccccc2)cc1 [QS11]; conditions: top dose 10.24 µM
Description: as §1

CUDC-101 = compound: C#Cc1cccc(Nc2ncnc3cc(OC)c(OCCCCCCC(=O)NO)cc23)c1 [CUDC-101]; conditions: top dose 5.12 µM; top dose inferred
Description: as §1

| Cell Line | AUC (JNK-9L) | IC50 (JNK-9L) [nM] | AUC (5-Fluorouracil) | IC50 (5-Fluorouracil) [µM] | AUC (RDEA119; screen: GDSC drug entry 1014) | IC50 (RDEA119; screen: GDSC drug entry 1014) [µM] | AUC (RDEA119; screen: GDSC drug entry 1526) | IC50 (RDEA119; screen: GDSC drug entry 1526) [µM] | AUC (OSU-03012) | IC50 (OSU-03012) [µM] | AUC (AC220) | IC50 (AC220) [nM] | AUC (QS11) | IC50 (QS11) [µM] | AUC (CUDC-101) | IC50 (CUDC-101) [nM] |
| --- | --- | --- | --- | --- | --- | --- | --- | --- | --- | --- | --- | --- | --- | --- | --- | --- |
| KYM-1 (rhabdomyosarcoma, adherent) | 0.525 | 371 | 0.978 | > 32 | 0.964 | > 5 | 0.966 | > 5 | 0.84 | 8.8 | 0.991 | > 1020 | 0.911 | > 10.2 | 0.76 | 1570 |
| CTV-1 (acute myeloid leukaemia, suspension) | 0.503 | 325 | 0.838 | 15.8 | 0.949 | > 5 | 0.983 | > 5 | 0.629 | 2.1 | 0.983 | > 1020 | 0.939 | > 10.2 | 0.419 | 201 |
| SW837 (large intestine, adherent) | 0.805 | 3620 | 0.866 | > 32 | – | – | 0.71 | 1.5 | 0.702 | 4.49 | 0.98 | > 1020 | 0.895 | > 10.2 | 0.417 | 177 |
| CAL-51 (breast, adherent) | 0.424 | 205 | 0.925 | > 32 | 0.871 | 3.65 | 0.97 | > 5 | 0.31 | 0.319 | 0.985 | > 1020 | 0.724 | 2.49 | 0.949 | > 5120 |
| H9 (lymphoid neoplasm, suspension) | 0.776 | 1680 | 0.984 | > 32 | 0.871 | 3.35 | 0.805 | 2.01 | 0.602 | 1.81 | 0.992 | > 1020 | 0.862 | 6.34 | 0.991 | > 5120 |
| ROS-50 (B-cell leukaemia, suspension) | 0.704 | 1430 | 0.857 | > 32 | 0.985 | > 5 | 0.982 | > 5 | 0.918 | > 16 | 0.979 | > 1020 | 0.96 | > 10.2 | 0.708 | 1470 |
| D-542MG (glioma, adherent) | 0.545 | 436 | 0.983 | > 32 | 0.888 | > 5 | 0.817 | 3.61 | 0.883 | > 16 | 0.984 | > 1020 | 0.841 | 9.55 | 0.581 | 559 |
| RPMI-8226 (myeloma, suspension) | 0.696 | 1050 | 0.374 | 0.946 | 0.799 | 2.04 | 0.868 | 3.6 | 0.77 | 5.32 | 0.975 | > 1020 | 0.852 | 6.38 | 0.579 | 511 |
| JVM-2 (lymphoid neoplasm, suspension) | 0.8 | 3150 | 0.618 | 4.56 | 0.928 | > 5 | 0.9 | > 5 | 0.857 | > 16 | 0.98 | > 1020 | 0.972 | > 10.2 | 0.792 | 2940 |
| CGTH-W-1 (thyroid, adherent) | 0.311 | 94.9 | 0.934 | > 32 | 0.726 | 1.36 | – | – | 0.716 | 4.08 | 0.869 | 934 | 0.937 | > 10.2 | 0.657 | 868 |
| BT-483 (breast, adherent) | 0.809 | > 5120 | 0.735 | 17.6 | 0.945 | > 5 | 0.971 | > 5 | 0.939 | > 16 | 0.957 | > 1020 | 0.918 | > 10.2 | 0.976 | > 5120 |
| H2818 (mesothelioma, adherent) | 0.806 | 2700 | 0.957 | > 32 | – | – | 0.945 | > 5 | 0.989 | > 16 | 0.972 | > 1020 | 0.989 | > 10.2 | 0.813 | 2860 |
| EW-18 (Ewing sarcoma, suspension) | 0.633 | 764 | 0.753 | 11.3 | 0.966 | > 5 | 0.972 | > 5 | 0.657 | 2.82 | 0.965 | > 1020 | 0.9 | > 10.2 | 0.26 | 62.2 |
| CW-2 (large intestine, adherent) | 0.972 | > 5120 | 0.704 | 7.91 | 0.872 | > 5 | 0.942 | > 5 | 0.988 | > 16 | 0.987 | > 1020 | 0.988 | > 10.2 | 0.719 | 1410 |

A lower IC50 marks a more sensitive line; where the fit passes the top or lowest dose, that dose stands as a limit. AUC is the area under the same curve over the 256-fold range up to the top dose, as a fraction: 1 means no effect, lower means more sensitive. For some assays here: The top dose, if marked as inferred, was derived from the fitted curves, not read from the paper. For some assays here: Where an entry number is given, a second screen of the drug exists; the two often differ.
